Where two headings read alike, the source gives them in different places.

Experimental findings from article PMC4497792 (RSC advances, 2015) are described below.

Experiment [1] concerns HeLa human cervical carcinoma cells. Particulars: 8 hour incubation; for reduction of lactate production (in words): 50–200 μM, normoxic.
The test system is the same in experiment [2]. The experiment in a line: cells. Particulars: 8 h, read-out: inhibition of lactate production.

Regarding `O=CC[C@@H](O)[C@H](O)[C@H](O)CO` [2-deoxyglucose, reference compound], the “effect on lactate production (in words)” value in experiment [1] (10 mM) is listed as “very modest effect”. As to `COC(=O)c1cc2c(C(F)(F)F)cc(-c3ccccc3)cc2n1O[C@H]1O[C@H](CO)[C@@H](O)[C@H](O)[C@@H]1O` [Compound 2, Methyl 6-phenyl-4-(trifluoromethyl)-1-(((2R,3S,4S,5S,6R)-3,4,5-trihydroxy-6-(hydroxymethyl)tetrahydro-2H-pyran-2-yl)oxy)-1H-indole-2-carboxylate], the “reduction of lactate production (in words)” value (from here on “reduction”) in experiment [1] is recorded as “potent, dose-dependent reduction in lactate production”. The inhibition (in general, the change of the read-out against control, counted positive when it falls) at 50 µM in experiment [2] stood at 55%.

As for `COC(=O)c1cc2c(C(F)(F)F)cc(-c3ccccc3)cc2n1O[C@@H]1O[C@H](CO)[C@H](O)[C@@H](O)[C@H]1O` [Compound 3, Methyl 6-phenyl-4-(trifluoromethyl)-1-(((2S,3R,4R,5R,6R)-3,4,5-trihydroxy-6-(hydroxymethyl)tetrahydro-2H-pyran-2-yl)oxy)-1H-indole-2-carboxylate], in experiment [1], the “reduction” value is “noticeable dose-dependent activity”.

Regarding `COC(=O)c1cc2c(C(F)(F)F)cc(-c3ccccc3)cc2n1O[C@@H]1O[C@H](CO)[C@@H](O)[C@H](O)[C@H]1NC(C)=O` [Compound 4, Methyl 1-(((2S,3R,4R,5S,6R)-3-acetamido-4,5-dihydroxy-6-(hydroxymethyl)tetrahydro-2H-pyran-2-yl)oxy)-6-phenyl-4-(trifluoromethyl)-1H-indole-2-carboxylate], the “reduction” value in experiment [1] is listed as “lacked any significant activity”.

With `COc1cc([C@@H]2c3cc4c(cc3[C@@H](O[C@@H]3O[C@@H]5CO[C@@H](C)O[C@H]5[C@H](O)[C@H]3O)[C@H]3COC(=O)[C@H]23)OCO4)cc(OC)c1O` [etoposide, reference compound], in experiment [1] (10 μM), the “effect on lactate production (in words)” value is “negligible effects”.
